Laboratory results reported in patent publication US11857601 (dated 2024).
Like-named read-outs stand apart in the source and are kept apart here. Values belong to the binder of their own block, whether it stands above or below them.

What was measured:
Test in all cases: BLI
[1] = biological target: T1, Human IL-2 R alpha protein, His Tag (Acro, ILA-H52H9) (human, UniProt P01589 22-213)
T1 chain: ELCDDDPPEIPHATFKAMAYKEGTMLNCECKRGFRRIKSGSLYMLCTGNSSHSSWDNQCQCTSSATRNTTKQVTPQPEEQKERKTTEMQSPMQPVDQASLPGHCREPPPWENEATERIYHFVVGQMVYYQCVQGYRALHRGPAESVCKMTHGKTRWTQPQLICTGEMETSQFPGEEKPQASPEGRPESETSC

[2] = biological target: T2, Human IL-2 R beta protein, His-Tag (Acro, CD2-H5221) (human, UniProt P14784 27-239)
T2 chain: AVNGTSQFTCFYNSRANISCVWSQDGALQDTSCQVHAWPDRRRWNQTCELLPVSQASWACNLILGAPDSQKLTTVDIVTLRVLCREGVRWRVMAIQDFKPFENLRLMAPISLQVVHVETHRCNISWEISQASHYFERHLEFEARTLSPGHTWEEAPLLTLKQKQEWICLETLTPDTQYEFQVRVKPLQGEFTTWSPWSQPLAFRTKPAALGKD

[3] = biological target: T1, Human IL-2 R alpha protein, His Tag …
[4] = biological target: T2, Human IL-2 R beta protein, His-Tag …
[5] = biological target: Recombinant Mouse B7-H1/PD-L1 Fc chimera (R&D Systems, Cat: 434-CT-200) (mouse, UniProt Q9EP73 fragment)
Chain of UniProt Q9EP73 (Q9EP73 19-238, change not shown): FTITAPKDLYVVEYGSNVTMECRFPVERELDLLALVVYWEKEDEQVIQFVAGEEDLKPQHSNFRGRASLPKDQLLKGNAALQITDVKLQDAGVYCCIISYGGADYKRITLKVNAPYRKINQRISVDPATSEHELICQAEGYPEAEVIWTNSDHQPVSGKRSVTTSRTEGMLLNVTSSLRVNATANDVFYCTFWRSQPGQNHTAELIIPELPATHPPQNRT

[6] = biological target: Recombinant Mouse CTLA-4 Fc chimera (R&D Systems, Cat: 434-CT-200) (mouse, UniProt P09793 36-162)

Kd [1]: 1.3 nM | Kd [2]: 91.7 nM | Kd [3]: 1.3 nM | Kd [4]: 91.7 nM
B1: Proleukin (Novartis, hIL-2) (ligand)
chain: not shown

Kd [1]: 1.6 nM | Kd [2]: 37.4 nM | Kd [3]: 1.6 nM | Kd [4]: 37.4 nM
B2: GI101w (CD80-Fc-IL-2) (Fc fusion)
chain: VIHVTKEVKEVATLSCGHNVSVEELAQTRIYWQKEKKMVLTMMSGDMNIWPEYKNRTIFDITNNLSIVILALRPSDEGTYECVVLKYEKDAFKREHLAEVTLSVKADFPTPSISDFEIPTSNIRRIICSTSGGFPEPHLSWLENGEELNAINTTVSQDPETELYAVSSKLDFNMTTNHSFMCLIKYGHLRVNQTFNWNTTKQEHFPDNGSGGGGSGGGGSGGGGSAESKYGPPCPPCPAPEAAGGPSVFLFPPKPKDQLMISRTPEVTCVVVDVSQEDPEVQFNWYVDGVEVHNAKTKPREEQFNSTYRVVSVLTVLHQDWLNGKEYKCKVSNKGLPSSIEKTISKAKGQPREPQVYTLPPSQEEMTKNQVSLTCLVKGFYPSDIAVEWESNGQPENNYKTTPPVLDSDGSFFLYSRLTVDKSRWQEGNVFSCSVLHEALHNHYTQKSLSLSLGGGGGS[about 150 residues left out]

Kd [5]: 9.91 nM | Kd [6]: 25.8 nM
B3: mGI101 (mCD80-Fc-IL-2 variant (2M)) (Fc fusion)
chain: MDAMLRGLCCVLLLCGAVFVSPSHAVDEQLSKSVKDKVLLPCRYNSPHEDESEDRIYWQKHDKVVLSVIAGKLKVWPEYKNRTLYDNTTYSLIILGLVLSDRGTYSCVVQKKERGTYEVKHLALVKLSIKADFSTPNITESGNPSADTKRITCFASGGFPKPRFSWLENGRELPGINTTISQDPESELYTISSQLDFNTTRNHTIKCLIKYGDAHVSEDFTWEKPPEDPPDSGSGGGGSGGGGSGGGGSAESKYGPPCPPCPAPEAAGGPSVFLFPPKPKDQLMISRTPEVTCVVVDVSQEDPEVQFNWYVDGVEVHNAKTKPREEQFNSTYRVVSVLTVLHQDWLNGKEYKCKVSNKGLPSSIEKTISKAKGQPREPQVYTLPPSQEEMTKNQVSLTCLVKGFYPSDIAVEWESNGQPENNYKTTPPVLDSDGSFFLYSRLTVDKSRWQEGNVFSCSVLHEALHNHYTQKSLSLSLGGGGGS[about 150 residues left out]
